Measured values published in PubChem BioAssay (Tox21).
Several values for one entry are separate records, joined by “and”; a condition that tells them apart may be missing. Equal values may be shown once. Inconclusive means that the source gave no clear call. Such entries were picked first, then a sample of the others. For some of these results: Potencies beside an inconclusive call are fits to weak or partial responses and may not hold up. Some compounds were tested as several samples or in several runs, with calls that do not always agree. Activity calls are given as the source filed them. Unless noted, the call rests on the fitted dose curve; in most records, active means well fitted curve in the direction sought with a large enough effect in the repeat runs; inconclusive means weak or mixed curves; inactive means no such curve, though single readings can be large; an effect the other way counts as inactive or inconclusive.

Tests used:
[1] = qHTS assay to identify small molecule agonists of H2AX (AID 1224845; active means well fitted activation curve with a large enough effect in the signal ratio in the repeat runs, not every such curve was filed as active; inconclusive means weak or mixed curves; the % refers to the signal ratio; on activation (H2AX phosphorylation): on the % scale 0 is the no-effect control and ±100 the full control effect); conditions: CHO-K1 phospho-H2AX Ser139 HTRF, 3 h; activation (H2AX phosphorylation): at 154 µM (top of the series) unless noted
How it was run: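 Wild-type CHO-K1 cells, plated overnight, exposed 3hr at 37C to 15 concentrations (0.76% DMSO final). Lysed, then HTRF anti-pH2AX (S139) cryptate and anti-H2AX-d2 antibodies, 24 hr room temperature; 665/620 nm emission read.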

[2] = qHTS assay to identify small molecule agonists of the hypoxia (HIF-1) signaling pathway (AID 1224846; active means well fitted activation curve with a large enough effect in the signal ratio in the repeat runs, not every such curve was filed as active; inconclusive means weak or mixed curves; the % refers to the signal ratio); conditions: HRE-bla ME-180 cells, beta-lactamase ratio, 17 h; activation: at 76.8 µM (top of the series) unless noted
How it was run: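 Compounds from the Tox21 10K library, dissolved in DMSO, are tested for induction of a hypoxia response element–controlled beta-lactamase reporter in ME-180 cells. Exposure lasts 17 hrs at 37C after a 5 hr settling period, followed by CCF4-AM FRET substrate.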

[3] = qHTS RealTime-Glo MT Cell Viability Assay in HEK293 cells - 32 hour (AID 1224868); further: nearly all actives have a fitted effect of over 50% in size
How it was run: (§1)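 Tox21 10K qHTS, HEK293, 600 cells/well, RealTime-Glo reagent co-dispensed with cells; 5 h preincubation, compound by pintool, 37 C, luminescence at 0–40 h.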

[4] = qHTS RealTime-Glo MT Cell Viability Assay in HepG2 cells - 8 hour (AID 1224873); further: nearly all actives have a fitted effect of over 55% in size
How it was run: (§2)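 HepG2 cells (600/well) mixed with RealTime-Glo MT reagent, settled 5 h at 37 C/5% CO2 before compound addition. Nonlytic NanoLuc luminescence from viable-cell prosubstrate reduction read repeatedly during 40 h treatment at 37 C.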

[5] = qHTS RealTime-Glo MT Cell Viability Assay in HEK293 cells - 0 hour (AID 1224880); further: nearly all actives have a fitted effect of over 45% in size
How it was run: (§3)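 Real-time viability in HEK293: signal arises when living cells convert a prosubstrate for NanoLuc in the medium, so luminescence tracks viable cell number. Compound (23 nL, DMSO) added 5 h post-seeding; kinetic reads at 0–40 h, 37 C.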

[6] = qHTS RealTime-Glo MT Cell Viability Assay in HepG2 cells - 24 hour (AID 1224867); further: nearly all actives have a fitted effect of over 50% in size
How it was run: (§4)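 Cells + NanoLuc/prosubstrate dispensed (600 cells/well) → 5 h at 37 C/5% CO2 → compounds in DMSO transferred → 40 h incubation at 37 C, luminescence read at 0, 8, 16, 24, 32, 40 h.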

[7] = A CellTox Green Cytotoxicity Assay to monitor cytotoxicity in HEK293 cells - 24 hour (AID 1224875); further: nearly all actives have a fitted effect of over 45% in size
How it was run: (§5)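 Cells (HEK293, 600/well) and dye reagent are dispensed together. After 5 h at 37 C, 23 nL compound is pinned in. Plates stay at 37 C for 40 h with fluorescence read at 0h, 8h, 16h, 24h, 32h and 40h.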

[8] = qHTS RealTime-Glo MT Cell Viability Assay in HepG2 cells - 32 hour (AID 1224877); further: nearly all actives have a fitted effect of over 55% in size
How it was run: as §4

[9] = A CellTox Green Cytotoxicity Assay to monitor cytotoxicity in HEK293 cells - 32 hour (AID 1224881); further: nearly all actives have a fitted effect of over 40% in size
How it was run: as §5

[10] = qHTS RealTime-Glo MT Cell Viability Assay in HEK293 cells - 16 hour (AID 1224872); further: nearly all actives have a fitted effect of over 50% in size
How it was run: as §1

[11] = A CellTox Green Cytotoxicity Assay to monitor cytotoxicity in HepG2 cells - 16 hour (AID 1224876); further: nearly all actives have a fitted effect of over 45% in size
How it was run: (§6)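 Cells and non-lytic dye reagent are dispensed together (600 HepG2 cells/well) and incubated 5 h before DMSO compound transfer. Kinetic fluorescence is then recorded in the same wells during 40 h at 37 C.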

[12] = qHTS assay to identify small molecule agonists of H2AX - cell viability counter screen (AID 1224847; calls by dose curve; further: nearly all actives have a fitted effect of over 30% in size)
How it was run: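 Counter-screen for viability: CellTiter-Glo ATP luminescence read after 3 h compound treatment (15-point titration, 0.76% DMSO final) of CHO-K1 cells at 37C, with 30 min room-temperature reagent incubation.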

[13] = qHTS assay to identify small molecule antagonists of the estrogen related receptor (ERR) signaling pathway from Tox21 library (AID 1224848); further: nearly all actives have a fitted effect of over 50% in size
How it was run: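 Compounds dissolved in DMSO are pin-transferred onto ERR reporter cells (2,000 per well) that have settled for 6 h at 37 C. Plates then incubate 18 h at 37 C before ONE-Glo luciferase reagent and a luminescence read 30 min later.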

[14] = qHTS RealTime-Glo MT Cell Viability Assay in HepG2 cells - 40 hour (AID 1224870); further: nearly all actives have a fitted effect of over 50% in size
How it was run: as §2

[15] = A CellTox Green Cytotoxicity Assay to monitor cytotoxicity in HEK293 cells - 40 hour (AID 1224871); further: nearly all actives have a fitted effect of over 45% in size
How it was run: as §5

[16] = qHTS RealTime-Glo MT Cell Viability Assay in HEK293 cells - 40 hour (AID 1224874); conditions: RealTime-Glo luminescence; max response: stronger effect = lower value; further: nearly all actives have a fitted effect of over 50% in size
How it was run: as §3

[17] = A CellTox Green Cytotoxicity Assay to monitor cytotoxicity in HepG2 cells - 24 hour (AID 1224878); further: nearly all actives have a fitted effect of over 45% in size
How it was run: as §6
Potency means the concentration at half of the fitted maximal effect; tags describe the fitted curve by direction and shape or compound fluorescence and quenching.

CN(C)c1ccc(C(=C2C=CC(=[N+](C)C)C=C2)c2ccccc2)cc1
Potency [1]: inconclusive: 22 µM [falling, partial curve] [middle of 4 runs] | Potency [2]: inconclusive: 11 µM [falling, full curve] and inconclusive: 4.25 µM [falling, full curve] and inconclusive: 5.35 µM [falling, full curve] | Potency [3]: active: 2.13 µM [middle of 4 runs] | Potency [4]: inconclusive: 8.49 µM [falling, full curve] | Potency [5]: inconclusive: 34.7 µM [falling, partial curve]

O=C1NCN(c2ccccc2)C12CCN(CCCC(c1ccc(F)cc1)c1ccc(F)cc1)CC2
Potency [1]: inconclusive: 55.2 µM [activator, single point] | Potency [2]: inconclusive: 13.4 µM [full curve] | Potency [6]: active: 6.74 µM | Potency [7]: inconclusive: 26.8 µM [activator, single point] | Potency [8]: active: 6.01 µM | Potency [9]: active: 23.9 µM

CCCCCCCC/C=C\CCCCCCCCOCCO
activation (H2AX phosphorylation) [1]: inconclusive: -8.44% | Potency [2]: inconclusive: 28.4 µM [falling, full curve] | Potency [6]: inconclusive: 63.7 µM [falling, partial curve, poor fit] | Potency [10]: active: 3.19 µM | Potency [11]: inconclusive: 71.5 µM [activator, single point] | Potency [9]: inconclusive: 25.4 µM [activator, full curve, poor fit]

C=CCCCCCCC=C
Potency [1]: inconclusive: 113 µM [activator, single point] | Potency [2]: inconclusive: 55.1 µM [falling, single point] | Potency [3]: inactive | Potency [10]: inactive

NC(=O)C1(N2CCCCC2)CCN(CCCN2c3ccccc3CCc3ccc(Cl)cc32)CC1
Potency [1]: inconclusive: 55.2 µM [activator, single point] | Potency [2]: inconclusive: 26.8 µM [single point] | Potency [6]: active: 23.9 µM | Potency [4]: inconclusive: 26.8 µM [falling, single point] | Potency [7]: inconclusive: 26.8 µM [activator, single point] | Potency [11]: active: 26.8 µM | Potency [9]: inconclusive: 26.8 µM [activator, single point]

C[C@]12CC[C@@H]3c4ccc(O)cc4CC[C@H]3[C@@H]1CC[C@@H]2OC(=O)CCC1CCCC1
Potency [1]: inconclusive: 45 µM [activator, single point] and inconclusive: 55.2 µM [activator, single point] | Potency [12]: active: 56.6 µM and inconclusive: 55.2 µM [cytotoxic, single point] | Potency [13]: inconclusive: 29.8 µM [inhibitor, partial curve] | Potency [6]: active: 49 µM | Potency [3]: active: 43.6 µM and inconclusive: 23.9 µM [cytotoxic, single point] | Potency [14]: inconclusive: 54.9 µM [falling, single point] | Potency [15]: active: 54.9 µM and inconclusive: 26.8 µM [activator, single point] | Potency [10]: active: 49 µM and inconclusive: 26.8 µM [cytotoxic, single point] | Potency [16]: inconclusive: 21.3 µM [cytotoxic, partial curve] | Potency [7]: inconclusive: 26.8 µM [activator, single point] | Potency [17]: active: 49 µM and active: 23.9 µM | Potency [9]: inconclusive: 26.8 µM [activator, single point]

C#C[C@]1(O)CC[C@H]2[C@@H]3CCC4=CC(=O)CC[C@@H]4[C@H]3CC[C@@]21CC
Potency [1]: inconclusive: 127 µM [fluorescent, partial curve, poor fit] and inconclusive: 113 µM [activator, single point] | Potency [2]: inconclusive: 43.6 µM [rising, partial curve, poor fit] | Potency [10]: inconclusive: 24.6 µM [cytotoxic, partial curve] and inconclusive: 24.5 µM [cytotoxic, partial curve] | Potency [16]: inconclusive: 24.6 µM [cytotoxic, partial curve] and active: 43.6 µM and inconclusive: 24.5 µM [cytotoxic, partial curve] | Potency [9]: active: 49.1 µM and inactive and inconclusive: 43.6 µM [activator, single point]

CCOc1nc2cccc(C(=O)OC(C)OC(=O)OC3CCCCC3)c2n1Cc1ccc(-c2ccccc2-c2nn[nH]n2)cc1 (stereo not given)
Potency [1]: active: 45 µM | Potency [2]: inconclusive: 43.6 µM [partial curve] | Potency [6]: inconclusive: 48.9 µM [falling, single point] | Potency [10]: active: 11 µM | Potency [4]: inconclusive: 43.6 µM [falling, single point] | Potency [16]: inconclusive: 8.7 µM [cytotoxic, full curve] | Potency [11]: inconclusive: 43.6 µM [activator, single point] | Potency [8]: inconclusive: 48.9 µM [cytotoxic, single point] | Potency [17]: active: 43.6 µM | Potency [5]: inconclusive: 9.76 µM [falling, single point]
